Laboratory results published in article PMC5555201, “Parallel homodimer structures of the extracellular domains of the voltage-gated sodium channel β4 subunit explain its role in cell–cell adhesion” (The Journal of Biological Chemistry, 2017).
These are yes or no findings as the source states them, for the method shown. For some assays here: In cells and extracts the contact can be indirect. Some entries that bind do so weakly or less than the wild type.

Legend:
[1] = molecular target: WT full-length β4 (mouse) protein stably expressed in CHO cells (mouse) (UniProt Q7M729); assay: SDS-resistant dimer band on Western blot; lysates of CHO cells stably expressing β4, no cross-linker; LDS sample buffer with 5 mM DTT, 70 °C 3 min; probed with anti-β4
[2] = molecular target: WT full-length β4 (mouse) protein stably expressed in CHO cells (mouse) (UniProt Q7M729); assay: cross-linking; CHO cells stably expressing β4 incubated with 1 mM BS^3 (cell-impermeable) in PBS for 30 min at room temperature; Western blot with anti-β4
[3] = molecular target: mouse β4 mutant with a deletion of the N-terminal segment (residues 30–37), stably expressed in CHO cells (mouse) (UniProt Q7M729); assay: SDS-resistant dimer band on Western blot; lysates of CHO cells stably expressing β4, no cross-linker; LDS sample buffer with 5 mM DTT, 70 °C 3 min; probed with anti-β4
[4] = molecular target: human β4 subunit extracellular domain fragment (residues 30–152) (human) (UniProt Q8IWT1); assay: crystal structure; human β4ex, hexagonal crystal form, 2.2 Å; 10% PEG1000 and 10% PEG8000, 20 °C; both purified
[5] = molecular target: human β4 subunit extracellular domain fragment (residues 30–152) (human) (UniProt Q8IWT1); assay: SEC; monomer fraction at 9 mg/ml incubated 0–12 h at 20 °C under non-reducing conditions; Superdex 75 10/300 GL in 20 mM Tris-HCl (pH 8.0), 150 mM NaCl, 10% glycerol, 5 mM β-mercaptoethanol at 4 °C; fractions on reducing SDS-PAGE; both purified

B1: WT full-length β4 (mouse) protein stably expressed in CHO cells (protein, UniProt Q7M729 31-228)
chain: LEVSVGKATTIYAINGSSILLPCTFSSCYGFENLYFKWSYNNSETSRILIDGIVKNDKSDPKVRVKDDDRITLEGSTKEKTNNISILLSDLEFSDTGRYTCFVRNPKEKDLNNSATIFLQVVDKLEKVDNTVTLIILAVVGGVIGLLVCILLLKKLITFILKKTREKKKECLVSSSGNDNTENGLPGSKAEEKPPTKV
modifications: N-glycosylated (β4 protein expressed in CHO cells is N-glycosylated)
B1 was tested, and the binding [1] was “binds” and the binding [2] was “binds”.

B2: mouse β4 mutant with a deletion of the N-terminal segment (residues 30–37), stably expressed in CHO cells (protein, UniProt Q7M729)
chain: ATTIYAINGSSILLPCTFSSCYGFENLYFKWSYNNSETSRILIDGIVKNDKSDPKVRVKDDDRITLEGSTKEKTNNISILLSDLEFSDTGRYTCFVRNPKEKDLNNSATIFLQVVDKLEKVDNTVTLIILAVVGGVIGLLVCILLLKKLITFILKKTREKKKECLVSSSGNDNTENGLPGSKAEEKPPTKV
B2 was tested, and the binding [3] was “no binding”.

B3: human β4 subunit extracellular domain fragment (residues 30–152) (domain or fragment, UniProt Q8IWT1-1 30-152, looked up)
chain: SLEVSVGKATDIYAVNGTEILLPCTFSSCFGFEDLHFRWTYNSSDAFKILIEGTVKNEKSDPKVTLKDDDRITLVGSTKEKMNNISIVLRDLEFSDTGKYTCHVKNPKENNLQHHATIFLQVV
notes: voltage-gated sodium channel β4 subunit, human, GenBank NP_777594, residues 30–152; all three Cys residues kept; His tag cleaved by tobacco etch virus protease; also called human β4ex; human β4 (hexagonal form); source: E. coli cell-free protein synthesis, purified (HisTrap, HiTrap Q, Superdex 75); not shown: His tag, N-terminal, cleaved
In the case of B3, the binding [4] is reported as “binds” and the binding [5] is reported as “binds”.
